Several values for one entry are separate records, joined by “and”; a condition that tells them apart may be missing. Equal values may be shown once. The shares of active, inactive and inconclusive entries below differ from those in the screen. Potencies beside an inconclusive call are fits to weak or partial responses and may not hold up. Activity calls are given as the source filed them. The call rests on the fitted dose curve; in most records, active means well fitted activation curve with a large enough effect in the signal ratio in the repeat runs (not every such curve was filed as active); inconclusive means weak or mixed curves; inactive means flat fitted curve, though single readings scatter; the % refers to the signal ratio.
test: qHTS assay to identify small molecule agonists of the hypoxia (HIF-1) signaling pathway (AID 1224846); conditions: HRE-bla ME-180 cells, beta-lactamase ratio, 17 h; series mostly up to 76.8 µM
How it was run: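 Compounds added to ME-180 cells carrying hypoxia-response-element beta-lactamase reporter (0.5% dialyzed FBS, 5 h preplating), 17 h at 37C; agonist activity detected by CCF4-AM B/G FRET read-out.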
Potency means the concentration at half of the fitted maximal effect; tags describe the fitted curve by direction and shape or compound fluorescence and quenching.

Structure (SMILES)	Potency
CCCC(c1cc(C(C)(C)C)c(O)cc1C)c1cc(C(C)(C)C)c(O)cc1C	inconclusive: 7.86 µM [falling, full curve]
CCCCCCCCOC(=O)c1ccc(O)cc1	inconclusive: 54.8 µM [single point] and inconclusive: 54.9 µM [single point]
O=C1c2ccccc2C(=O)N1SC1CCCCC1	inconclusive: 54.9 µM and inconclusive: 54.9 µM [single point]
SC1CCCCC1	inactive
N/C(=N\N=C\c1ccc(Cl)cc1)N/N=C/c1ccc(Cl)cc1	inconclusive: 19 µM [falling, partial curve]
CCCCCCCCCCCCCCCCCCNC(=O)OC1CCN(C(=O)OC[C@H](COC(=O)N(Cc2cccc[n+]2CC)C(=O)c2ccccc2OC)OC)CC1	inconclusive: 26.8 µM
CC(C)c1ccc2sc3ccccc3c(=O)c2c1	inactive
CC(C)(C)c1ccc(C(=O)CCCN2CCC(OC(c3ccccc3)c3ccccc3)CC2)cc1	inconclusive: 16.9 µM [falling, partial curve]
CCCCCCCCCCCCOC(=O)c1cc(O)c(O)c(O)c1	inconclusive: 24.4 µM [falling, full curve] and inconclusive: 24.5 µM [falling, full curve]
Cc1cc(CCN2CCN(c3nsc4ccccc34)CC2)cc2c1NC(=O)CC2(C)C	inconclusive: 54.9 µM
O=C1C=CC(=O)N1c1ccc(Cc2ccc(N3C(=O)C=CC3=O)cc2)cc1	inconclusive: 11 µM [falling, full curve]
O=C(Nc1ccc(Cl)cc1)Nc1ccc(Cl)c(C(F)(F)F)c1	inconclusive: 21.3 µM [falling, partial curve]
Cc1ccc(N)c(S(=O)(=O)O)c1	inconclusive: 49.6 µM [rising, partial curve]
CCCCC(CC)COC(=O)c1ccc(N(C)C)cc1 (configuration not stated)	inactive
Oc1ccc(-c2ccccc2)c(Cl)c1	inconclusive: 61.6 µM [single point]
Clc1ccc2n[nH]nc2c1	inconclusive: 21.9 µM [falling, partial curve]

Structure (SMILES)	Potency
CCCCC(CC)CN=C(N)NC(N)=NCCCCCCN=C(N)NC(N)=NCC(CC)CCCC (configuration not stated)	inconclusive: 23.9 µM [falling, partial curve]
Cc1ccc(C(C)(C)C)c(O)c1	inconclusive: 59.7 µM [falling, single point]
CCOC(=O)C1=C(C)NC(C)=C(C(=O)OCC)C1c1ccccc1/C=C/C(=O)OC(C)(C)C	inconclusive: 26.8 µM
CN(C[C@@H](CC[N+]12CCC(C3CCCCC3)(CC1)CC2)c1ccc(Cl)c(Cl)c1)C(=O)c1cc(C(F)(F)F)cc(C(F)(F)F)c1	inconclusive: 43.6 µM [cytotoxic, partial curve]
CC1=CC(=O)c2ccccc2C1=O	inconclusive: 24.5 µM [full curve] and inconclusive: 26.8 µM [single point]
S=C(NC1CCCCC1)NC1CCCCC1	inactive
CC(=O)OCCOC(C)=O	inactive
O=C(Nc1ccccc1)c1cc(Cl)ccc1O	inconclusive: 24.5 µM [falling, partial curve]
CCCCCCCCNC(C)C(O)c1ccc(SC(C)C)cc1 (configuration not stated)	inconclusive: 26.8 µM
COc1ccc(C(Cl)=C(c2ccc(OC)cc2)c2ccc(OC)cc2)cc1	inconclusive: 54.7 µM [falling, single point] and inconclusive: 61.7 µM [falling, single point]
Oc1ccc(Cl)cc1C1CCCC1	inconclusive: 54.9 µM [single point]
C=C(C)C(=O)OCCC[Si](OC)(OC)OC	inconclusive: 61.7 µM [falling, single point]
CN(C)C(=S)SC(=S)N(C)C	inconclusive: 2 µM [falling, full curve] and inconclusive: 1.95 µM [falling, full curve] and inconclusive: 2.68 µM [falling, full curve]
CS(=O)(=O)CCNCc1ccc(-c2ccc3ncnc(Nc4ccc(OCc5cccc(F)c5)c(Cl)c4)c3c2)o1	inconclusive: 19 µM [falling, partial curve]
CCCCCCCCCC[N+](C)(CCCCCCCCCC)CCC[Si](OC)(OC)OC	inconclusive: 54.9 µM
CCC(Cc1c(I)cc(I)c(N)c1I)C(=O)O (configuration not stated)	inconclusive: 53.2 µM [rising, partial curve, poor fit]

From PubChem BioAssay (Tox21)
